Consider 25 compounds from the supplement of paper PMC10037445.

Over roughly 2,900 compounds, “NF-kB SEAP reporter activity, fold change vs agonist alone” has its median near 0.99; the highest 2% begin near 2.6. The list shows a part of the results.

Test [1] concerns RAW-Dual. As to the kind of experiment: NF-kB SEAP reporter activity, fold change vs agonist alone; cytotoxicity flag (confluency mask): not cytotoxic; higher = enhanced NF-kB activity. Summed up:
(§1)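 RAW-Dual macrophages (50,000 cells/well in DMEM, 384-well plates) received 50 nL of library stock by pin tool, then a PRR agonist 1 h later, and were kept at 37 °C, 5% CO2. After 20 hours, supernatant was read for IRF by QuantiLuc luminescence and for NF-κB by QuantiBlue absorbance at 620 nm. Reporter activity is fold change over agonist-alone wells. Cytotoxic wells had IncuCyte confluency below 70% of agonist controls in both mask sets.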

The test system of test [2] is RAW-Dual. As to the kind of experiment: NF-kB SEAP reporter activity, fold change vs agonist alone; higher = enhanced NF-kB activity. The following applies: library stock concentration (final ~1000-fold dilution): 10 mM. Summed up: as §1
The subject of test [3] is RAW-Dual. As to the kind of experiment: NF-kB SEAP reporter activity, fold change vs agonist alone; cytotoxicity flag (confluency mask): cytotoxic (confluency <70% of control); higher = enhanced NF-kB activity. Summed up:
as §1

Setting [4] is: agonist: ODN 1826 (TLR9) 0.5 ug/mL.
The mark [5] stands for this setting: agonist: Pam2CSK4 (TLR2/6) 0.1 ug/mL.
Setting [6] is: agonist: Pam3CSK4 (TLR2/1) 0.1 ug/mL.
The mark [7] stands for this setting: cytotoxicity flag (confluency mask): not cytotoxic, agonist: MPLA (TLR4) […].
Where [8] appears, read: cytotoxicity flag (confluency mask): cytotoxic (confluency <70% of control), agonist: Imiquimod (TLR7) […].
Setting [9] is: cytotoxicity flag (confluency mask): cytotoxic (confluency <70% of control), agonist: MPLA (TLR4) […].
The mark [10] stands for this setting: cytotoxicity flag (confluency mask): not cytotoxic, agonist: Imiquimod (TLR7) […].

Consider `CC1CCN(C(=O)CC#N)CC1N(C)c1ncnc2[nH]ccc12.O=C(O)CC(O)(CC(=O)O)C(=O)O` (stereo unspecified) (library stock concentration (final ~1000-fold dilution): 10 mM), for which the “NF-kB SEAP reporter activity” value is 1.13 in the test with RAW-Dual [1] (agonist: LPS (TLR4) 0.1 ug/mL), 1.26 in the test with RAW-Dual [1] (setting [4]), 1.52 in the test on RAW-Dual [1] (setting [5]) and 1.11 in the test with RAW-Dual [1] (setting [6]).
With `CC1CCN(C(=O)CC#N)CC1N(C)c1ncnc2[nH]ccc12.O=C(O)CC(O)(CC(=O)O)C(=O)O` (stereo unspecified), the “NF-kB SEAP reporter activity” value in the test on RAW-Dual [2] (setting [7]) stood at 1.04.
Regarding `CN1C(=O)C(C)(C)Oc2c(-c3cn(C)c(=O)c4[nH]ccc34)cc(S(C)(=O)=O)cc21` (library stock concentration (final ~1000-fold dilution): 10 mM), the “NF-kB SEAP reporter activity” value in the test with RAW-Dual [3] (agonist: LPS (TLR4) 0.1 ug/mL) came to 2.16; with RAW-Dual [3] (setting [4]) it was 1.73; with RAW-Dual [3] (setting [5]), 0.658; with RAW-Dual [3] (setting [6]), 1.99.
For `CN1C(=O)C(C)(C)Oc2c(-c3cn(C)c(=O)c4[nH]ccc34)cc(S(C)(=O)=O)cc21`, the “NF-kB SEAP reporter activity” value came out at 1.56 in the test on RAW-Dual [2] (setting [8]) and 2.34 with RAW-Dual [2] (setting [9]).
As to `CN(C)C/C=C/C(=O)Nc1cc2c(Nc3ccc(F)c(Cl)c3)ncnc2cc1OC1CCOC1.O=C(O)/C=C\C(=O)O.O=C(O)/C=C\C(=O)O` (stereo unspecified) (library stock concentration (final ~1000-fold dilution): 10 mM), the “NF-kB SEAP reporter activity” value with RAW-Dual [3] (agonist: LPS (TLR4) 0.1 ug/mL) was 0.206; in the test with RAW-Dual [3] (setting [4]), 0.178; in the test with RAW-Dual [3] (setting [5]), 0.258; in the test on RAW-Dual [3] (setting [6]) it was 0.158.
Regarding `CN(C)C/C=C/C(=O)Nc1cc2c(Nc3ccc(F)c(Cl)c3)ncnc2cc1OC1CCOC1.O=C(O)/C=C\C(=O)O.O=C(O)/C=C\C(=O)O` (stereo unspecified), the results for the “NF-kB SEAP reporter activity” value in the test on RAW-Dual [2] (setting [8]) and in the test on RAW-Dual [2] (setting [9]) were 1.3 and 0.365, respectively.
As for `CC(C)=CCC/C(C)=C/Cc1c(O)c(CC=C(C)C)c2c(c1O)C(=O)C1=CC3CC4C(C)(C)OC(C/C=C(/C)C(=O)O)(C3=O)C14O2` (stereo unspecified) (library stock concentration (final ~1000-fold dilution): 10 mM), the “NF-kB SEAP reporter activity” value with RAW-Dual [3] (agonist: LPS (TLR4) 0.1 ug/mL) came to 0.888; in the test on RAW-Dual [3] (setting [4]), 1.04; in the test with RAW-Dual [3] (setting [5]) it was 0.553; in the test with RAW-Dual [3] (setting [6]), 0.619.
For the compound `CC(C)=CCC/C(C)=C/Cc1c(O)c(CC=C(C)C)c2c(c1O)C(=O)C1=CC3CC4C(C)(C)OC(C/C=C(/C)C(=O)O)(C3=O)C14O2` (stereo unspecified), the “NF-kB SEAP reporter activity” value in the test with RAW-Dual [2] (setting [8]) came out at 1.45; with RAW-Dual [2] (setting [9]), 1.6.
Consider `CCOC(=O)Nc1cc(-c2ccc(C)c(NS(C)(=O)=O)c2)nn2c(C)nnc12` (library stock concentration (final ~1000-fold dilution): 10 mM), for which, in the test with RAW-Dual [1] (agonist: LPS (TLR4) 0.1 ug/mL), the “NF-kB SEAP reporter activity” value amounted to 3.81.
For `COc1cc2c3cc1Oc1c(OC)c(OC)cc4c1[C@@H](Cc1ccc(O)c(c1)Oc1ccc(cc1)C[C@@H]3N(C)CC2)N(C)CC4` (library stock concentration (final ~1000-fold dilution): 10 mM), the “NF-kB SEAP reporter activity” value amounted to 1.15 with RAW-Dual [1] (agonist: LPS (TLR4) 0.1 ug/mL), 1.13 in the test with RAW-Dual [1] (setting [4]), 1.12 in the test on RAW-Dual [1] (setting [5]) and 1.04 with RAW-Dual [1] (setting [6]).
Take `COc1cc2c3cc1Oc1c(OC)c(OC)cc4c1[C@@H](Cc1ccc(O)c(c1)Oc1ccc(cc1)C[C@@H]3N(C)CC2)N(C)CC4`: the “NF-kB SEAP reporter activity” value in the test with RAW-Dual [2] (setting [10]) was 0.961; with RAW-Dual [2] (setting [7]), 1.04.
On to `O=S(=O)(O)c1ccc2cc(N=Nc3cc(S(=O)(=O)O)c4cccnc4c3O)ccc2c1`, for which the figures for the “NF-kB SEAP reporter activity” value in the test on RAW-Dual [2] (setting [10]) and with RAW-Dual [2] (setting [7]) were 0.525 and 0.934, respectively.
In the case of `O=S(=O)(O)c1ccc2cc(N=Nc3cc(S(=O)(=O)O)c4cccnc4c3O)ccc2c1` (library stock concentration (final ~1000-fold dilution): 10 mM), the “NF-kB SEAP reporter activity” value with RAW-Dual [1] (agonist: LPS (TLR4) 0.1 ug/mL) worked out at 0.838; in the test on RAW-Dual [1] (setting [4]), 0.925; in the test on RAW-Dual [1] (setting [5]), 0.921; in the test on RAW-Dual [1] (setting [6]) it was 1.08.
In the case of `COc1cc2c(Oc3ccc4[nH]c(C)cc4c3F)ncnc2cc1OCCCN1CCCC1`, the “NF-kB SEAP reporter activity” value came to 1.98 with RAW-Dual [2] (setting [8]) and 1.96 in the test with RAW-Dual [2] (setting [9]).
`COc1cc2c(Oc3ccc4[nH]c(C)cc4c3F)ncnc2cc1OCCCN1CCCC1` (library stock concentration (final ~1000-fold dilution): 10 mM): the “NF-kB SEAP reporter activity” value in the test on RAW-Dual [3] (agonist: LPS (TLR4) 0.1 ug/mL) came to 0.671; in the test with RAW-Dual [3] (setting [4]) it was 0.212; with RAW-Dual [3] (setting [5]), 1.03; with RAW-Dual [3] (setting [6]), 1.37.
For the compound `CCc1nn(CCCN2CCN(c3cccc(Cl)c3)CC2)c(=O)n1CCOc1ccccc1.Cl` (library stock concentration (final ~1000-fold dilution): 10 mM), the “NF-kB SEAP reporter activity” value in the test on RAW-Dual [1] (agonist: LPS (TLR4) 0.1 ug/mL) came to 0.981; in the test on RAW-Dual [1] (setting [4]), 0.799; in the test with RAW-Dual [1] (setting [5]), 0.822; in the test on RAW-Dual [1] (setting [6]) it was 0.646.
On to `CCc1nn(CCCN2CCN(c3cccc(Cl)c3)CC2)c(=O)n1CCOc1ccccc1.Cl`, for which the “NF-kB SEAP reporter activity” value in the test on RAW-Dual [2] (setting [7]) came to 0.878.
For the compound `CC(NC(=O)C(O)c1cc(F)cc(F)c1)C(=O)NC1C(=O)N(C)c2ccccc2-c2ccccc21` (stereo unspecified), the figures for the “NF-kB SEAP reporter activity” value with RAW-Dual [2] (setting [10]) and with RAW-Dual [2] (setting [7]) were 0.951 and 0.867, respectively.
For `CC(NC(=O)C(O)c1cc(F)cc(F)c1)C(=O)NC1C(=O)N(C)c2ccccc2-c2ccccc21` (stereo unspecified) (library stock concentration (final ~1000-fold dilution): 10 mM), the “NF-kB SEAP reporter activity” value with RAW-Dual [1] (agonist: LPS (TLR4) 0.1 ug/mL) came to 1.3; in the test on RAW-Dual [1] (setting [4]), 0.848; in the test with RAW-Dual [1] (setting [5]), 0.759; in the test on RAW-Dual [1] (setting [6]), 0.722.
The matching figures for `CC(C)n1cc(-c2ccc3c(c2)N(C)CC3)c2c(NS(=O)(=O)c3ccn(C)n3)ccnc21` (library stock concentration (final ~1000-fold dilution): 10 mM): 1.25, 1.12, 1.14 and 1.07.
`CC(C)n1cc(-c2ccc3c(c2)N(C)CC3)c2c(NS(=O)(=O)c3ccn(C)n3)ccnc21`: the “NF-kB SEAP reporter activity” value in the test on RAW-Dual [2] (setting [10]) was determined as 0.948; in the test with RAW-Dual [2] (setting [7]), 1.02.
For `Cl.Cl.NC1CCC(NC2CC2c2ccccc2)CC1` (stereo unspecified) (library stock concentration (final ~1000-fold dilution): 10 mM), the “NF-kB SEAP reporter activity” value in the test with RAW-Dual [1] (agonist: LPS (TLR4) 0.1 ug/mL) amounted to 1.25; in the test on RAW-Dual [1] (setting [4]), 0.222; in the test on RAW-Dual [1] (setting [5]) it was 0.869; with RAW-Dual [1] (setting [6]), 0.615.
Regarding `Cl.Cl.NC1CCC(NC2CC2c2ccccc2)CC1` (stereo unspecified), the “NF-kB SEAP reporter activity” value in the test on RAW-Dual [2] (setting [10]) came out at 1.03; in the test on RAW-Dual [2] (setting [7]) it was 1.37.
For `O=[N+]([O-])c1cccc2cn[nH]c12` (library stock concentration (final ~1000-fold dilution): 10 mM), the “NF-kB SEAP reporter activity” value in the test with RAW-Dual [1] (agonist: LPS (TLR4) 0.1 ug/mL) is 0.887; in the test with RAW-Dual [1] (setting [4]) it was 1.03; with RAW-Dual [1] (setting [5]) it was 1.12; in the test on RAW-Dual [1] (setting [6]), 0.837.
On to `O=[N+]([O-])c1cccc2cn[nH]c12`, for which the “NF-kB SEAP reporter activity” value in the test with RAW-Dual [2] (setting [10]) came to 1.01; in the test with RAW-Dual [2] (setting [7]), 1.09.
